Source: PMC3541133
No constants are given. Whether binding was seen depends on the method and setting. Some entries that bind do so weakly or less than the wild type. For part of these data: Sequences can lack the tags named with a protein.

Amino acid sequences for entries named in this document (tags omitted).
UniProt Q9NVX2: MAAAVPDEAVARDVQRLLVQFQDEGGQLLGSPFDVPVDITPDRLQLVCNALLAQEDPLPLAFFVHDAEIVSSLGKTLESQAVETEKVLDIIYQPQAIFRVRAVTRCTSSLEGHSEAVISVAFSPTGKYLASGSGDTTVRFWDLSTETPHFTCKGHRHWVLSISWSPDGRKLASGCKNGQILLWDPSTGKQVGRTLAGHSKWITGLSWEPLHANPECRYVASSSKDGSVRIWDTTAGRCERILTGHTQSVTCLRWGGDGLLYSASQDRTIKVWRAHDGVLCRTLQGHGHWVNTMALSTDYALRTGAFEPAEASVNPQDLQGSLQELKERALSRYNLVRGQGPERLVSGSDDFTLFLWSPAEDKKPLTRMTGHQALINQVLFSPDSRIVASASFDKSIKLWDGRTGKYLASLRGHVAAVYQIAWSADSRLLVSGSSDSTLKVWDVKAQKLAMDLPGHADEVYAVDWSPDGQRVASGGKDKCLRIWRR
UniProt Q9NPJ4: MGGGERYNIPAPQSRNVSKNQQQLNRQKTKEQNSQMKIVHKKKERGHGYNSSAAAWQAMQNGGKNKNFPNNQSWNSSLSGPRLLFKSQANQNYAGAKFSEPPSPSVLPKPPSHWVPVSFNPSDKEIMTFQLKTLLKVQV
UniProt Q9UHP6: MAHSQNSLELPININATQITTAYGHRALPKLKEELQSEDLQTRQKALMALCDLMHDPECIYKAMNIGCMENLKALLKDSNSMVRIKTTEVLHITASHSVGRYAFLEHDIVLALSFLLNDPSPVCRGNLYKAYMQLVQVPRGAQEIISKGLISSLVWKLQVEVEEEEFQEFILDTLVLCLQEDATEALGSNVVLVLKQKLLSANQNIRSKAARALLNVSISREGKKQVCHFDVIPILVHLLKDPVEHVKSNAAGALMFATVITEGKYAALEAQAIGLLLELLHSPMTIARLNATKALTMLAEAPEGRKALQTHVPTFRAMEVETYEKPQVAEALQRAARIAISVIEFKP
UniProt P78362: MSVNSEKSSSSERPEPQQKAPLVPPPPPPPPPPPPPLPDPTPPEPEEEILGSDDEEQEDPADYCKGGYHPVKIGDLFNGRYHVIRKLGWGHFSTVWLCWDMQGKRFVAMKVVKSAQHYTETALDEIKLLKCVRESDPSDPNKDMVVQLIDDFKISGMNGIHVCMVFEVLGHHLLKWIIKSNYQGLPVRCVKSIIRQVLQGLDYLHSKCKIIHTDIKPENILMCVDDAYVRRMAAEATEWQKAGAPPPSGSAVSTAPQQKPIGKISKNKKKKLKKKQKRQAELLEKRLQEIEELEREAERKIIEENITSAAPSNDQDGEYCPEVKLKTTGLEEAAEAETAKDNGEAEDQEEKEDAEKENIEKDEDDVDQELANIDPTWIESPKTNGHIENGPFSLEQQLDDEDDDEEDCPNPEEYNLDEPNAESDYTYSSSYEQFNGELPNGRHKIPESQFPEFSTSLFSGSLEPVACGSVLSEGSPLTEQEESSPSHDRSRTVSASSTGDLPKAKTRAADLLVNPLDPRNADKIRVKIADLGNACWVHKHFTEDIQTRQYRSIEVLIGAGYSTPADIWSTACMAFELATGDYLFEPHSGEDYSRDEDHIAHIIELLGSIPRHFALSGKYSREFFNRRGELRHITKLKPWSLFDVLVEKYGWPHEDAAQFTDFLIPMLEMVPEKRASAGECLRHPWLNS
UniProt Q6P280: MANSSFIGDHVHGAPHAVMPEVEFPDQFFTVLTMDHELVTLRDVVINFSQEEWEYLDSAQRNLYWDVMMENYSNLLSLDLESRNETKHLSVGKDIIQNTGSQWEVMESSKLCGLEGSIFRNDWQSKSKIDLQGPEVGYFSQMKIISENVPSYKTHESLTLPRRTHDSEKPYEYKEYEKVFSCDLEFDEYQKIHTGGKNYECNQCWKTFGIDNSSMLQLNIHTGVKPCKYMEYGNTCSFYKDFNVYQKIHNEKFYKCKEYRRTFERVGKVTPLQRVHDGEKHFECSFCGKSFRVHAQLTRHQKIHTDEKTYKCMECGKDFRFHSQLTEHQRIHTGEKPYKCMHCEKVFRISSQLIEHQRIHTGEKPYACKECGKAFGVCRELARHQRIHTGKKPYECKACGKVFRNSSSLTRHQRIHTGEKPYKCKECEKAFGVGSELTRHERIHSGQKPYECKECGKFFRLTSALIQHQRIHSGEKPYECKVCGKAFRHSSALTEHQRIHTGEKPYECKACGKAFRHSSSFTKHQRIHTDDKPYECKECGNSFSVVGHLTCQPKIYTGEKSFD
UniProt P03197: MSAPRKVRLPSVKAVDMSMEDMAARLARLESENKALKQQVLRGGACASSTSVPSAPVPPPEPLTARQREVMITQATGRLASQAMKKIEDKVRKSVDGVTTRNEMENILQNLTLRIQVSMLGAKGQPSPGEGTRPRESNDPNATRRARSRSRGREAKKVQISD

Experiments:
Experiment in all cases: two-hybrid; BLRF2-AD in MATa haploid yeast mated with MATα yeast carrying DB-human hybrid proteins of the human ORFeome v5.1; growth on selective media; primary screens done twice, hits sequenced and retested
[1] = target: T1, CCL3L3 (DB-human hybrid protein, human ORFeome v5.1) (human) (UniProt P16619)
T1 sequence: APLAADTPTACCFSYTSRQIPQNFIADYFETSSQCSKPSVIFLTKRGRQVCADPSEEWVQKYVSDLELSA

[2] = target: NLE1 (DB-human hybrid protein, human ORFeome v5.1) (human) (UniProt Q9NVX2)
[3] = target: PNRC2 (DB-human hybrid protein, human ORFeome v5.1) (human) (UniProt Q9NPJ4)
[4] = target: RTDR1 (DB-human hybrid protein, human ORFeome v5.1) (human) (UniProt Q9UHP6)
[5] = target: T2, SLC6A13 (DB-human hybrid protein, human ORFeome v5.1) (human) (UniProt Q9NSD5)
T2 sequence: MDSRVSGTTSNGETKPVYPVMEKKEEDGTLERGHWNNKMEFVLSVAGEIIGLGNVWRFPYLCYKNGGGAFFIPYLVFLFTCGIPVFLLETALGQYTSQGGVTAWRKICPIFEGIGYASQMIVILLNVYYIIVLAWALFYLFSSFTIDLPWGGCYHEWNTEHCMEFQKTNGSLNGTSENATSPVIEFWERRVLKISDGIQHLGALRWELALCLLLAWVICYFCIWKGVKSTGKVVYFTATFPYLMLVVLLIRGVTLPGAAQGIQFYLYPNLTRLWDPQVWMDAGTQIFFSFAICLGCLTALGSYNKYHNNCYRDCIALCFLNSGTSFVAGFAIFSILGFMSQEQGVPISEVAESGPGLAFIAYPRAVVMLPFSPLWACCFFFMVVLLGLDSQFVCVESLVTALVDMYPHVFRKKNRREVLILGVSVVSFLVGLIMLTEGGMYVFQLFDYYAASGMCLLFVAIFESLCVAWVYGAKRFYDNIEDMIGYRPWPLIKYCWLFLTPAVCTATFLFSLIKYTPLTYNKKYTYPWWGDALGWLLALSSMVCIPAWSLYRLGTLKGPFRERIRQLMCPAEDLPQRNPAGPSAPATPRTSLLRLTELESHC

[6] = target: T3, SNX14 (DB-human hybrid protein, human ORFeome v5.1) (human) (UniProt Q9Y5W7)
T3 sequence: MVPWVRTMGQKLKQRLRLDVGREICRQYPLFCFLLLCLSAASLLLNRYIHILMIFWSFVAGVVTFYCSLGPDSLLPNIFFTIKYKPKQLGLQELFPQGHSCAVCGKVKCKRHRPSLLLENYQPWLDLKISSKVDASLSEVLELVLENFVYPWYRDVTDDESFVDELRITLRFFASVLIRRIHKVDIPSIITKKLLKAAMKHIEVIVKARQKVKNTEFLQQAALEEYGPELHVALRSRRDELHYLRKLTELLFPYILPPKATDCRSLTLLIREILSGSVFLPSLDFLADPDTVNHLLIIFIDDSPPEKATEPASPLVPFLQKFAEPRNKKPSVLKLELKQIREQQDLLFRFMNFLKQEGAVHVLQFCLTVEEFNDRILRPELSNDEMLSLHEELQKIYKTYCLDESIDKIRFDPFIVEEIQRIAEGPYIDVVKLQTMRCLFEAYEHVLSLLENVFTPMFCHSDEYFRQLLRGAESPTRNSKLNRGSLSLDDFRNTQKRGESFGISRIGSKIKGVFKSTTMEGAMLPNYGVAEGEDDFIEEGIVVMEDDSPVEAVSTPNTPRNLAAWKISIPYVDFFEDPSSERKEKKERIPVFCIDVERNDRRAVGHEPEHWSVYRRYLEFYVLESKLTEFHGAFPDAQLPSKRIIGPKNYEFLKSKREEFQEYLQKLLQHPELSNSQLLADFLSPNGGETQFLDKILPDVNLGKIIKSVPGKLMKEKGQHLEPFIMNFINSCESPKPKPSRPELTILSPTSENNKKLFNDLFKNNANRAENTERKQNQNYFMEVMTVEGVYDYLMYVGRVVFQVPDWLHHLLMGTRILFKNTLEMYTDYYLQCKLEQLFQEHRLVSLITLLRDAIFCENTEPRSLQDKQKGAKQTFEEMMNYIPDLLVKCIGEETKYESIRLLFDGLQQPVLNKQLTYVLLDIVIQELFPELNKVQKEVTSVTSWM

[7] = target: SRPK2 (DB-human hybrid protein, human ORFeome v5.1) (human) (UniProt P78362)
[8] = target: T4, SRPRB (DB-human hybrid protein, human ORFeome v5.1) (human) (UniProt Q9Y5M8)
T4 sequence: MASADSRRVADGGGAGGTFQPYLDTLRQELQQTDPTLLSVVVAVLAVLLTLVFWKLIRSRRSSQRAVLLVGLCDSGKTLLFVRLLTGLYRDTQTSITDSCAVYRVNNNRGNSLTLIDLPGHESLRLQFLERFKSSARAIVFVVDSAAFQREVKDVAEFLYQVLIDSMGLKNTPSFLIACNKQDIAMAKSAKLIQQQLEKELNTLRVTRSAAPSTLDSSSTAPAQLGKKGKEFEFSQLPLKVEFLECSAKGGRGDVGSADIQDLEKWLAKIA

[9] = target: ZNF529 (DB-human hybrid protein, human ORFeome v5.1) (human) (UniProt Q6P280)

Measured: binding

BLRF2 yeast two-hybrid fusions (gal4-AD-BLRF2 and gal4-DB-BLRF2) (from UniProt P03197 1-162)
binds: all assays above
